Source: the RNAGym collection of RNA variant scans (doi:10.7554/elife.90254)
The source gives no read counts; variants with many changes may rest on few reads.

B1: LINE1-mini (parent)
chain: GGCAGAGCUCAACACAGCGUGGCAAAGUGGCUGUGGCUAGACUGCC

Variants of: B1
Test: self-cleavage, relative activity (ratio to wild type); higher = more cleavage; in vitro, sequencing; the parent is a self-cleaving ribozyme

| Variant | self-cleavage |
| --- | --- |
| C3A A6G U9C | 0.03 |
| C3A C13G A16U A25C A26C | 0.06 |
| C3A A4C G40U | 0.21 |
| C3A C18U U38G A39U | 0.06 |
| G2U G7U G19A A24U G30U G33U G40U C42A | 0.05 |
| G2U G7U A12C U28C G44A | 0 |
| C3A A41U U43A C45A | 0.19 |
| C3A C13G A25G G36U U43A | 0.23 |
| C3A C23G C46A | 0.1 |
| C3A C8G U20C A26G G35C C37U | 0.03 |
| C3A C10A G17U G35U | 0.04 |
| C3A C10U A24U G29C U32C U38A | 0.02 |
| C3A C8G C15A U43C | 0.02 |
| G2U C10G A39U | 0.01 |
| C3A C13U G17A A26C G36C | 1.44 |
| C3A A6U G30A A39U U43A | 0.51 |
| C3A C10G G29U | 0.08 |
| G2U C23U G40A C42U | 0.05 |
| G2U C13G G35C A39C | 0.03 |
| G2U G5U A11U A14G | 0.01 |
| G2U C15U C18G | 0.04 |
| G2U C18A A24C C31U A39U C42A | 0.01 |
| C3A A6U A24G C42U | 0.27 |
| G2U C23U G40C C42G | 0.01 |

| Variant | self-cleavage |
| --- | --- |
| G2U G5A C31A A39G | 0.03 |
| G2U C31A G33C | 0.03 |
| C3A C8A C15A C18G G29A C31A U34A A39G C45G | 0.15 |
| G2U G27C A41U G44A | 0.05 |
| G2U G5U A11G C46U | 0.02 |
| G2U C13A A26G | 0.04 |
| C3A C15A G36A C37U C42G | 0.11 |
| G2U G5C G30A G40A | 0.02 |
| G2U U20A U43A | 0.02 |
| G2U G7A G19A G22U G30C | 0.05 |
| G2U G5C G21C A25G U32A G44U | 0 |
| C3A C18U G35U C37U | 0.34 |
| G2U G5C U32G G33U | 0.01 |
| G2U C13A A16G U32C | 0.02 |
| C3A A11G A39U C42U | 0.02 |
| G2U G44U C46G | 0.03 |
| C3A A26U U32A G35C A41G | 0.04 |
| C3A A16C G17U | 0.27 |
| G2U G7A A26C | 0.04 |
| G2U C10G A14G G19U G30C | 0.01 |
| G2U G7A C13A G44A | 0.24 |
| G2U U34C G40U A41G | 0.02 |
| C3A A6U C18A G21A G33A C42A C46U | 0.02 |
| G2U G21A A24G C46U | 0.07 |

| Variant | self-cleavage |
| --- | --- |
| C3A A14C G17U C18U G33A | 0.05 |
| G2U C31U C42G | 0.01 |
| G2U C8G G35A | 0.07 |
| G2U C8U A14U G17U U28C | 0.06 |
| G2U C13U G30C | 0.02 |
| G2U C10U A14U G19A | 0 |
| G2U G17A G22U G33U | 0.02 |
| C3A A11G A24C C42G | 0.01 |
| G2U C15G G27C | 0.02 |
| G2U U9G G21C G33C G36C | 0.01 |
| C3A A16C A25U U28G | 0.02 |
| C3A A24U G36U C45A | 0.17 |
| G2U U34C C42G | 0.01 |
| C3A A6U G7A U28A | 0.14 |
| G2U C10U A12U C15A C23U A41C | 0.01 |
| C3A A6C U9G A14C G29C U38A G44C C45G | 0.01 |
| C3A C23A A25G G33U | 0.02 |
| G2U C10U G33U G35A G44U | 0.01 |
| G2U G17U A25U G30C | 0.03 |
| G2U G19A G30U G35A G44U | 0.02 |
| G2U C42U U43C | 0.06 |
| G2U C18U G44C | 0.08 |
| C3A C15U C42A | 0.24 |
| G2U G17C C18G G40U C42G G44A | 0 |

| Variant | self-cleavage |
| --- | --- |
| G2U G7A G27A | 0.13 |
| G2U G17A U43C | 0 |
| C3A C15A A16G G27U C42A | 0.06 |
| G2U C10A A16G | 0 |
| G2U G21U A25U A26U C46A | 0.03 |
| C3A A4U C18A G36U | 0.14 |
| C3A C10G C18G | 0.03 |
| C3A C15U G17U A39U | 0.09 |
| C3A A25C G29A C45A | 0.11 |
| C3A C18G G22U A24C | 0.25 |
| G2U C8G U20C G30A | 0.01 |
| C3A C8U A11C C18U A26G U28A U32G | 0 |
| G2U U9A G19C G36U | 0.02 |
| G2U C10A C18A A25G | 0.02 |
| C3A C18G G30U | 0.49 |
| C3A C13U C23G A25G G27U | 0.23 |
| G2U G7A U9A A26C G33U C37U | 0.05 |
| C3A A4G G5C A16G G30U U38G C42U U43A | 0.02 |
| C3A C10A C37G C46G | 0.01 |
| C3A C10A G33C G35C | 0.04 |
| G2U C23G U34C | 0.01 |
| C3A C10U G30A G40A | 0.09 |
| G2U G22U G30A C31G A39U | 0.01 |
| G2U C18U G22A | 0.04 |

| Variant | self-cleavage |
| --- | --- |
| G2U G19U G27U | 0.05 |
| G2U C10U A11C C13G G35U C42A | 0.02 |
| C3A A26U C37G C46U | 0.24 |
| C3A C8A U43C | 0.2 |
| G2U C13U G27U | 0.07 |
| G2U U9A C37G | 0.07 |
| G2U G19C G30A U32A A39G | 0 |
| C3A A6G A12G G19A C37G | 0.01 |
| G2U G21U A41U | 0.41 |
| C3A A4C G17C | 0.03 |
| G2U G5C A11U C15A U20C A24G G29C U34A C45A | 0 |
| G2U G19A C23U A24U G29C C31G | 0.03 |
| G2U U9C C23U G29U G36U C45G | 0.04 |
| C3A A14C U32G | 0.11 |
| G2U G5U A11U G33C C37U | 0.01 |
| C3A C10U A11U G30U G35A | 0.05 |
| G2U G44U C45A C46A | 0.01 |
| G2U C10G C31U G40U | 0 |
| C3A A4C C37U | 0 |
| G2U C15U A26G | 0.02 |
| G2U C13A C15G G40U | 0.09 |
| G2U C15A G19C G22U | 0.02 |
| C3A C13G C23A G29A G35U G44A | 0.4 |
| G2U G30U C37A | 0.03 |

| Variant | self-cleavage |
| --- | --- |
| C3A C8U U9A C13A C15G G35U G40C | 0.2 |
| C3A C18G G29U | 0.56 |
| C3A C23A U32A G36U | 0.22 |
| C3A C15G C18A G36C C45G | 0.05 |
| G2U C31G C46U | 0.02 |
| G2U G5A C31A U32A | 0.03 |
| C3A C13G U34G | 0.04 |
| C3A C23A G33A | 0.06 |
| G2U C10A U20C G27A C31G C37U | 0.01 |
| C3A C15U G27A | 0.33 |
| G2U C8U A39G | 0.05 |
| G2U U28G A39C C45A | 0.01 |
| G2U G22U U32G G33U C37G | 0.09 |
| C3A A4U G5A C10A G17U G29C | 0.04 |
| G2U U9C A12C G35C C46G | 0.02 |
| C3A A12U G36U A41U | 0.12 |
| G2U U9G U38C A41G | 0.04 |
| G2U C10A G19C C42G | 0.01 |
| C3A A4G G5U A24C A26U | 0.04 |
| C3A A6U C37U | 0.11 |
| C3A C18A A41C | 0.11 |
| G2U G19A C23G C31A A39U | 0.06 |
| G2U G21C C42G | 0.01 |
| G2U U20G C37U A39G | 0.01 |

| Variant | self-cleavage |
| --- | --- |
| G2U G7A A14C U38G | 0.02 |
| C3A C10A C13G C15A A16C G19U A39U G44A | 0.01 |
| C3A C23G C31U G40C | 0.18 |
| C3A A6G A26U | 0.03 |
| G2U C15G G33A U43A | 0.06 |
| G2U G30U A39U | 0.06 |
| G2U G40A C42G | 0.03 |
| G2U C18U U34A C42A | 0.02 |
| C3A C13A G19C | 0.46 |
| G2U U9G A14G U20G | 0.04 |
| G2U G21C G36U A41G | 0.03 |
| C3A C15A G36C | 0.42 |
| G2U G17C G35A G36A | 0.07 |
| G2U G17A G35A G36C | 0.05 |
| C3A C10G A11G U34A A41C C42A G44A | 0.01 |
| C3A A16G C31A | 0.03 |
| G2U G5U A24U C31U C46U | 0.02 |
| G2U G5C C8U C18U G22C | 0.02 |
| C3A A16G A25U G36C C37G | 0.01 |
| C3A C8A A14G G19U U28G U34C G44U C46U | 0.02 |
| G2U G7C G22U G36C C37A | 0.19 |
| G2U C15A C37A G40U | 0.01 |
| G2U G7U C10A | 0 |
